Results taken from PubChem BioAssay AID588855 (National Center for Advancing Translational Sciences (NCATS), 2011).
Hit rate of the full screen: of about 410,000 compounds, about 5,000 (1.2%) were called active. The inconclusive results got no clear call from the source; some entries with a clear call stand among them for comparison. Calls come from the whole dose curve; as a rule, active = well fitted inhibition curve with a large enough effect; inconclusive = small, poorly fitted or top-dose-only effect; inactive = no such curve, though single readings can be large or run the other way. Potencies beside an inconclusive call are fits to weak or partial responses and may not hold up.
Potency is the fitted concentration of half-maximal effect; tags give direction and shape of the fitted curve.

Assay: qHTS for Inhibitors of TGF-b; note: nearly all actives have a fitted effect of over 65% in size
Conditions: HepG2 CAGA-GFP TGF-b/SMAD3 reporter, GFP fluorescence, 18 h, TGF-beta stimulated, 500 pg/mL final; series mostly up to 46.1 µM
Summary of the method: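 HEPG2 CAGA-GFP cells (1000/well, DMEM with 1% FBS) were pre-incubated 2 h at 37 degrees C, given compound by pin tool, then stimulated with TGF-beta at 500 pg/mL final for 18 h before per-cell GFP fluorescence imaging.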
With `CC(N)c1ccc(Cl)cc1Cl` (centres undefined) the Potency was “inactive”. In the case of `Cc1ccc(C)c(NC(=O)CN(C)C(=O)c2cc(C3CC3)nn2-c2ccccc2)c1`, the Potency is reported as inconclusive: 35.5 µM [inhibitor, single point]. In the case of `Cc1cc(NC(=O)c2ccc(Br)c([N+](=O)[O-])c2)no1`, the Potency is reported as “inactive”. With `COC(=O)c1cc(=O)n(Cc2ccco2)c(=Nc2ccc(F)c(Cl)c2)s1` the Potency was active: 12.6 µM. For `CCc1cccc(NC(=O)CSc2nc3ccsc3c(=O)n2CC)c1`, the Potency was inconclusive: 3.16 µM [inhibitor, partial curve, poor fit]. With `S=C1NCCc2ccccc2C1c1ccccc1Cl` (centres undefined) the Potency was “inactive”. In the case of `CCn1c(/C(C#N)=C/c2ccccc2Cl)nc2ccccc21`, the Potency is reported as inconclusive: 35.5 µM [inhibitor, single point]. With `CC(C)NC(=O)/C(C#N)=C/c1cccc(NC(=O)c2ccccc2Cl)c1` the Potency was inconclusive: 35.5 µM [inhibitor, single point]. For `COC(=O)c1cc(C(=O)OCC(=O)N(C)c2ccccc2)cc([N+](=O)[O-])c1`, the Potency was inconclusive: 25.1 µM [inhibitor, single point]. With `CN(Cc1ccccc1)C(=O)CN1CCN(S(=O)(=O)c2ccc(Cl)c(Cl)c2)CC1` the Potency was inconclusive: 14.1 µM [inhibitor, partial curve]. With `O=[N+]([O-])c1ccc2c(c1)C=C1CCCCC1(N1CCCC1)O2` (centres undefined) the Potency was inconclusive: 5.62 µM [inhibitor, single point]. With `COc1ccc(-c2ncc(CN3CCC(CO)(Cc4cccc(OC)c4)CC3)cn2)cc1` the Potency was “inactive”. For `COc1ccc(S(=O)(=O)N2CCN(S(=O)(=O)c3ccc4c(c3)OCCO4)CC2)cc1`, the Potency was inconclusive: 35.5 µM [inhibitor, single point]. With `COC(=O)c1ccc(C2NC(c3ccc4c(c3)OCO4)=CC(c3ccccc3O)N2)cc1` (centres undefined) the Potency was active: 11.2 µM. For `COc1ccc(Nc2c3c(nc4ccc(NC(=O)/C=C/c5cccc(OC)c5OC)cc24)CCCC3)cc1OC`, the Potency was active: 3.55 µM. With `CC(NC(=O)COC(=O)/C(=C/c1cccs1)c1cccs1)c1ccccc1` (centres undefined) the Potency was inconclusive: 35.5 µM [inhibitor, partial curve, poor fit]. In the case of `CC(C)(C)CC(C)(C)Nc1c(-c2ccc(O)cc2)nc2cnccn12`, the Potency is reported as inconclusive: 15.8 µM [inhibitor, single point]. In the case of `CN(C(=S)Nc1ccc(SC(F)F)cc1)C(c1ccccc1)c1ccccc1`, the Potency is reported as inconclusive: 35.5 µM [inhibitor, single point]. In the case of `Oc1cccc(-c2ccc3nccn3c2)c1`, the Potency is reported as inconclusive: 22.4 µM [inhibitor, single point].
